From PubChem BioAssay AID1745853 (National Center for Advancing Translational Sciences (NCATS), 2022)
Several values for one entry are separate records, joined by “and”; a condition that tells them apart may be missing. Equal values may be shown once. This is one part of the list. Shown are side measurements of this screen, not its main read-out; they come without a call.

Experiments:
Assay in all cases: Primary Screen for Target Class Profiling of Small Molecule Inhibitors of Methyltransferases
[1] = target: Glycine N-methyltransferase (Homo sapiens) (UniProt Q14749); settings: purified enzyme, MTase-Glo SAH luminescence; measured here: GNMT inhibition; at 40 µM; stronger effect = lower value
Procedure, shortened: (§1)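 Each enzyme was reacted with SAM and its substrate, with compounds tested once at 40 uM; SAH formed was read by MTase-Glo luminescence.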

[2] = target: Guanidinoacetate N-methyltransferase (Homo sapiens) (UniProt Q14353); settings: purified enzyme, MTase-Glo SAH luminescence; measured here: GAMT inhibition; at 40 µM; stronger effect = lower value
Procedure, shortened: as §1

[3] = target: Histamine N-methyltransferase (Homo sapiens) (UniProt P50135); settings: purified enzyme, MTase-Glo SAH luminescence; measured here: HNMT inhibition; at 40 µM; stronger effect = lower value
Procedure, shortened: as §1

[4] = target: Nicotinamide N-methyltransferase (Homo sapiens) (UniProt P40261); settings: purified enzyme, MTase-Glo SAH luminescence; measured here: NNMT inhibition; at 40 µM; stronger effect = lower value
Procedure, shortened: as §1

[5] = target: Phenylethanolamine N-methyltransferase (Homo sapiens) (UniProt P11086); settings: purified enzyme, MTase-Glo SAH luminescence; measured here: PNMT inhibition; at 40 µM; stronger effect = lower value
Procedure, shortened: as §1
On the % scale 0 is the no-effect control and ±100 the full control effect.

SMILES	activity change, negative = inhibition [1]	activity change, negative = inhibition [2]	activity change, negative = inhibition [3]	activity change, negative = inhibition [4]	activity change, negative = inhibition [5]
CCc1ccccc1NC(=O)c1ncn2c1C(=O)N(C1CC1)C(C)(C(=O)NCc1ccc(OC)cc1)C2 (stereo not given)	1.49%	2.69%	12.1%	4.85%	9.87%
CN(C)C[C@@H]1CN(c2ncccn2)C[C@H]1NC(=O)c1ccc(Cl)cc1	-6%	-3.67%	-0.653%	-3.98%	-0.232%
COCCn1ncc(N2CCC(C(=O)NCCCN3CCC(N4CCCCC4)CC3)C2)cc1=O (stereo not given)	0.801%	-0.945%	-7.75%	-4.38%	1.69%
OC1(CN2CCCCC2)CCN(Cc2ccc(C(F)(F)F)cc2F)C1 (stereo not given)	-1.32%	3.58%	0.314%	-0.538%	0.352%
Cc1ccc(C(=O)Cn2nc3n(C)c(=O)c4ccc(C(=O)NC5CCCCC5)cc4n3c2=O)c(C)c1	1.23%	2%	0.391%	10.9%	2.4%
O=C(NCc1cccnc1)[C@@H]1C[C@@H](O)CN1C1CCN(C(=O)COc2ccccc2)CC1	-3.61%	-7.92%	-4.05%	-7.85%	-5.83%
Cc1ccccc1CNC(=O)C(C)n1ccc2cc(S(=O)(=O)N3CCCCC3)ccc21 (stereo not given)	4.88%	0%	7.63%	5.88%	5.49%
COc1ccc(OC)c(NC(=O)Cn2c(=O)c3ccc(Cl)cc3n3nncc23)c1	0.926%	0%	6.11%	0.622%	1.24%
CCCn1c(=O)c2ccc(Cl)cc2n2c(SCc3cccc(OC)c3)nnc12	-7.77%	-1.53%	-1.18%	-5.92%	-1.62%
COc1cc(NC(=O)c2cc3n(n2)CC(C)(C(=O)NC2CCCCCC2)N(C)C3=O)cc(OC)c1 (stereo not given)	-2.24%	1.07%	2.33%	-4.16%	-0.962%
CC(C)N1CCN(C(=O)C2N(C(C)C)C(=O)C23CCCC3)CC1 (stereo not given)	0.77%	2.37%	2.05%	-3.08%	3.65%
CN(Cc1ccc2nonc2c1)Cc1cn(-c2ccccc2)nn1	-2.04%	0.072%	0.967%	-3.83%	-12.7%
CC1(C(=O)NC2CCCCC2)Cn2nc(-c3cccs3)cc2C(=O)N1CCc1ccc(Cl)cc1 (stereo not given)	-2.41%	3.14%	-2.56%	2.4%	-0.932%
CCNC(=O)[C@@H]1C[C@H](NC(=O)c2oc(C)nc2C)CN1Cc1nc(C)no1	-0.238%	-1.19%	0.717%	-4.7%	-5.48%
N#Cc1ccc(Nc2nc(-c3ccc(O)cc3O)cs2)cc1C(F)(F)F	-24.4%	-8.85%	-16.8%	-30.6%	-16.4%
COc1cccc(CN2C[C@]34C=C[C@H](O3)C(C(=O)N3CCCCC3)C4C2=O)c1 (stereo not given in full)	-2.58%	-14.5%	-3.81%	-17.8%	-10.1%
Clc1ccccc1CNc1nc2c(-c3ccccc3)nnn2c2ccccc12	-5.59%	-2.56%	-9.45%	-8.78%	-12.9%
CN(C)c1ccc(-c2noc([C@@H]3CCCN3C3CCOCC3)n2)cn1	-5.6%	-6.82%	-4.08%	-7.96%	-1.17%
CCOc1ccc(C(=O)Cn2nc3n(CCCOC(C)C)c(=O)c4ccccc4n3c2=O)cc1	-3.25%	2.95%	2.41%	-4.38%	-2.09%
CCCCCNc1nc2c(S(=O)(=O)c3ccc(C)cc3)nnn2c2ccccc12	0.808%	0%	4%	-1.19%	-2.83%
C=CCc1ccc(O[C@@H]2O[C@H](CO[C@@H]3O[C@@H](C)[C@H](O)[C@@H](O)[C@H]3O)[C@@H](O)[C@H](O)[C@H]2O)cc1	2.46%	3.59%	5.58%	-6.68%	-2.47%

SMILES	activity change, negative = inhibition [1]	activity change, negative = inhibition [2]	activity change, negative = inhibition [3]	activity change, negative = inhibition [4]	activity change, negative = inhibition [5]
CCOC(=O)c1cc2n(n1)CC(C)(C(=O)NC1CCCCC1)N(c1ccc(C)c(F)c1)C2=O (stereo not given)	3.98%	-0.874%	7.92%	9.71%	1.64%
COc1cnc(-n2cnc(C)n2)c2[nH]cc(C(=O)C(=O)N3CCN(C(=O)c4ccccc4)CC3)c12	1.51%	6.83%	10%	-15.7%	4.2%
COc1ccc(C(=O)N2CCOCCNC(=O)CC2)c(OC)c1	-7.2%	-11.3%	-2.51%	-14.5%	-8.1%
CCOCCCNC(=O)N1CC2CN(CCOC)CC(C1)O2	-0.163%	-2.9%	1.16%	-4.99%	-18.9%
CC(C)N(CCC(=O)c1ccc2ccccc2c1)Cc1ccccc1	-88.1% and -8.92%	6.04% and 1.43%	0.739% and 11.3%	-5.26% and -12.1%	2.89% and -0.03%
CCCc1nc(C(=O)N[C@H]2COC[C@H]2Cc2cc(C)no2)cs1	0.704%	0.297%	3.25%	-0.52%	0.142%
c1ccc2[nH]c([C@H]3CCN(CC4CCCCC4)C3)nc2c1	-9.17%	-5.3%	-35.7%	-22.1%	-2.3%
COc1ccc(CNC(=O)CCc2nnc3n(CC(C)C)c(=O)c4ccccc4n23)cc1	-1.83%	19.3%	9.54%	3.48%	0.035%
Cc1ccc(C)c(N2CCN(S(=O)(=O)c3cc4[nH]c(=O)[nH]c4cc3Br)CC2)c1	12%	0.725%	10.6%	3.9%	6.28%
COc1ccc2cc3n(c2c1)CC(C)(C(=O)NC1CCCC1)N(CCc1ccccc1)C3=O (stereo not given)	-0.803%	3.89%	2.69%	-4.14%	-4.2%
Cc1ccc(NC(=O)Cn2nc3n(CCC(C)C)c(=O)c4ccc(C(=O)NCC(C)C)cc4n3c2=O)cc1	0.462%	2.25%	0.013%	-3.56%	-4.43%
COc1c2cc(c(O)c1OC)-c1cc(ccc1O)CCC(O)CCCC2 (stereo not given)	0%	4.47%	5.67%	-8.27%	1.25%
Cc1ccccc1NC(=O)Cn1nc2n(CC(C)C)c(=O)c3ccc(C(=O)NC(C)C)cc3n2c1=O	0.707%	4.25%	0.978%	-13.6%	-6.29%
COCC(=O)N1CC(C(=O)O)C2(CCOCC2)C1 (stereo not given)	-1.54%	-2.53%	-0.121%	-5.22%	-0.972%
O=c1cc(-c2ccccc2)oc2ccc(O)cc12	–	-20.8%	–	-36.4%	-19.8%
CCCn1c(=O)c2ccc(C(=O)NC3CCCC3)cc2n2c(=O)n(CC(=O)Nc3ccc(C)cc3)nc12	2.6%	0%	4.01%	3.45%	2.81%
C=C1CCC2C(C)(C)CCC[C@]2(C)[C@H]1C/C=C(\CO)C(=O)C(=O)O (stereo not given in full)	-3.13%	-14.9%	3.1%	-30%	-13.8%
CCOC(=O)c1cc2n(n1)CC(C)(C(=O)NCCCOC)N(c1cc(C)ccc1C)C2=O (stereo not given)	8.43%	2.05%	13.1%	9.51%	7.24%
O=C(Cn1nc2n(Cc3ccc(F)cc3)c(=O)c3ccccc3n2c1=O)NCc1ccccc1Cl	1.88%	3.56%	-1.7%	0.562%	0.967%
CC(C)[S+](=O)([O-])N1CCN(c2ccc(Cl)nn2)C(=O)C1	-7.32%	-7.94%	-3.95%	-14.4%	7.8%
CCc1ccc(-c2cc3n(n2)CC(C)(C(=O)NC2CCCCC2)N(C2CCCC2)C3=O)cc1 (stereo not given)	-0.868%	2.48%	-0.939%	-4.38%	-3.7%

SMILES	activity change, negative = inhibition [1]	activity change, negative = inhibition [2]	activity change, negative = inhibition [3]	activity change, negative = inhibition [4]	activity change, negative = inhibition [5]
O=C(Cn1c(=O)oc2cc(S(=O)(=O)N3CCCCC3)ccc21)NCc1ccc(Cl)cc1	-3.74%	-31% and 2.54%	0.34%	-33% and -25.1%	-8% and -5.17%
CC(C)C[C@H](NC(=O)[C@@H]1O[C@H]1C(=O)O)C(=O)NCCCCN=C(N)N	-4.91%	–	-4.28%	–	–
CCOCc1cc(OC)c(-c2ccc(C[C@H](NC(=O)c3c(F)cccc3F)C(=O)O)cc2)c(OC)c1	0.445%	-7.39%	12.1%	-13.7%	2.54%
COc1cccc(CN2C(=O)c3cc4sccc4n3CC2(C)C(=O)NC2CCC(C)CC2)c1OC (stereo not given)	-2.4%	4.8%	1.53%	-10.5%	-4.72%
CC1(C(=O)NC2CCCCC2)Cn2c(ccc2-c2ccccc2)C(=O)N1CCCN1CCCC1=O (stereo not given)	-2.18%	4.96%	1.53%	3.32%	1.93%
COc1ccc(-c2cc3n(n2)CC(C)(C(=O)NCc2ccccc2OC)N(c2ccc(F)cc2C)C3=O)cc1 (stereo not given)	-0.729%	-0.144%	2.18%	-9.66%	-2.52%
O=C(Cc1ccccn1)NCCNC(=O)c1ccc(-c2cccc(C(F)(F)F)c2)cc1	-5.73%	-4.95%	-1.6%	-7.52%	-0.908%
CC(C)CNC(=O)c1ccc2c(=O)n(CC(C)C)c3nn(Cc4c(F)cccc4Cl)c(=O)n3c2c1	5.83%	0.302%	7.15%	1.33%	3.62%
CC1CCN(S(=O)(=O)c2ccc3c(ccn3CCC(=O)NCc3ccc(N(C)C)cc3)c2)CC1	-1.12%	6.91%	-4.4%	-3.49%	0.587%
c1cc2c(cc1N1CCC(N3CCC4(CCNCC4)C3)CC1)OCO2	-3.99%	-3.36%	-12.6%	-5.84%	-6.23%
O=S(=O)(NCCn1c(-c2ccccc2)nc2ccccc21)c1ccccc1Cl	-8.16%	-0.876%	-6.19%	-13.8%	-3.9%
O=C(NC1CCCC1)N1Cc2c(sc3c2CCCC3)-n2cccc2C1c1ccc(F)cc1 (stereo not given)	-4.64%	0%	-2.36%	-10.3%	0.473%
O=C(Cc1ccccc1F)Nc1cnc(-c2cccnc2)nc1	-3.19%	1.71%	0.085%	5.59%	-9.71%
COc1c(F)cccc1CN1CCOc2cc([S+](N)(=O)[O-])ccc2C1	-6.91%	-10.9%	-5.22%	-27.6%	-10.7%
CCC(C)NC(=O)c1ccc2c(=O)n(C)c3nnc(SCC(=O)Nc4cccc(F)c4)n3c2c1 (stereo not given)	-2.21%	0%	6.78%	-12.4%	-2.73%
COc1ccc(C(C(=O)O)N2CCN(Cc3csc(C)n3)CC2)cc1C (stereo not given)	-2.09%	0.459%	1.44%	1.36%	5.49%
O=C(NC1CCCCC1)[C@@H]1Cc2nc[nH]c2CN1Cc1ccc(Cl)cc1	-5.83%	-3.14%	-3.12%	-12.4%	-0.401%
CCCCS(=O)(=O)N1CCCC2(C1)Nc1cccnc1NC2=NCc1ccccc1 (stereo not given)	-10.1%	-7.06%	-4.73%	-12.2%	-10.9%
CCCn1c(=O)c2ccc(C(=O)NC(C)C)cc2n2c(SCC(=O)Nc3cccc(OC)c3)nnc12	0.637%	-4.9%	5.42%	-6.14%	-6.25%
